Out of some 420,000 compounds screened, about 64,000 (15%) were called active. The shares of active, inactive and inconclusive entries below differ from those in the screen. Calls follow the shape of the dose curve; as a rule, active = well fitted inhibition curve with a large enough effect; inconclusive = small, poorly fitted or top-dose-only effect; inactive = flat fitted curve, though single readings scatter. Potencies of inconclusive entries are left out as doubtful fits.
assay: qHTS for Inhibitors of human tyrosyl-DNA phosphodiesterase 1 (TDP1): qHTS in cells in absence of CPT; settings: DT40 Tdp1-/- hTDP1 cells, no CPT, ATP luminescence, 48 h; activity change, negative = growth inhibition: at 46.2 µM (top of the series); also: nearly all actives have a fitted effect of over 55% in size
In short: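 Readout: luminescence from CellTiter-Glo after 30 min in the dark at RT. Cells: DT40 Tdp1-/- with stable hTDP1, 400/well. Exposure: compounds alone, ≥48 hr, 37 °C.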
% is scaled to controls: 0 for no effect and ±100 for the full control effect; potency is read from the fitted curve at half-maximal effect; tags tell the direction and shape of the fitted curve.

Row | SMILES | Potency | activity change, negative = growth inhibition
1 | Cn1c(C(O)c2ccc3c(c2)OCO3)nc2ccccc21 (stereo unspecified) | inconclusive [inhibitor, partial curve] | –
2 | COc1ccccc1NS(=O)(=O)c1ccc(O)c(C(=O)OCc2cccc([N+](=O)[O-])c2)c1 | inconclusive [inhibitor, partial curve, poor fit] | –
3 | CC1(C)c2[nH]c3ccccc3c2C[C@H]2C(=O)N(CCCCCO)CC(=O)N21 | inactive | –
4 | CC(O)C(NS(=O)(=O)c1ccc(Cl)cc1)C(=O)OCc1cc([N+](=O)[O-])cc2c1OCOC2 (stereo unspecified) | inconclusive [inhibitor, partial curve] | –
5 | Cc1cccc(C)c1N1C(=O)c2ccccc2NC(=O)C1C(=O)NCCOc1ccccc1 (stereo unspecified) | inconclusive [inhibitor, full curve, poor fit] | –
6 | CC(Nc1c[nH]c(=O)[nH]c1=O)c1ccccc1 (stereo unspecified) | inactive | –
7 | COc1ccc(C(=O)NCC(c2ccc(N(C)C)cc2)N2CCc3ccccc32)c(OC)c1 (stereo unspecified) | active: 20.6 µM | –
8 | O=C(Nc1ccccc1F)c1ccc(CNS(=O)(=O)c2cccc(C(F)(F)F)c2)cc1 | inconclusive [inhibitor, partial curve] | –
9 | CCCCN(C)C(=O)c1sc(=O)n(CC(=O)c2ccccc2OC)c1C | inconclusive [inhibitor, single point] | –
10 | O=C(NC1CCCC1)C(c1ccc(F)cc1)N(Cc1ccccc1Cl)C(=O)CCl (stereo unspecified) | active: 3.26 µM | –
11 | COCCn1c(SCC(=O)Nc2ccc3c(c2)OCCO3)nc2c(c1=O)SC(C)C2 (stereo unspecified) | inconclusive [inhibitor, partial curve, poor fit] | –
12 | COc1ccc(-c2nc3c(C#N)c[nH]n3c2NC2CCCC2)c(OC)c1 | inconclusive [inhibitor, single point] | –
13 | Cc1ccc(NC(=O)CCc2c(C)nc3cc(-c4ccccc4)nn3c2C)cc1F | inconclusive [inhibitor, single point] | –
14 | COc1cc2nc(CN(C)CC(=O)Nc3ccc(N4CCOCC4)cc3)[nH]c(=O)c2cc1OC | – | inconclusive: -34.3% [inhibitor]
15 | Cc1cc(-c2ccccc2)nc(SCc2ccc(C(=O)O)cc2)n1 | inactive | –
16 | O=C(Oc1ccc(/C=N/NC(=O)c2ccccc2F)cc1)c1ccccc1 | active: 11.6 µM | –
17 | CCOc1ccccc1N(C)C(=O)c1cn(CC)c(=O)c2cc(OC)c(OC)cc12 | inconclusive [inhibitor, partial curve] | –
18 | Cc1cc(C(=O)N(Cc2nnc(-c3ccc(Cl)cc3)o2)C(C)C)c2ccccc2n1 | active: 14.6 µM | –
19 | CCOc1ccc(N2C(=O)CS/C2=C(\C(Cl)=C(Cl)Cl)[N+](=O)[O-])cc1 | inconclusive [inhibitor, partial curve, poor fit] | –
20 | CCc1cc(C(=O)Nc2cnn(Cc3ccccc3C)c2)no1 | inconclusive [inhibitor, partial curve] | –
21 | Cc1ccc(CN2CCN(C(=O)C3CCCO3)CC2)cc1 (stereo unspecified) | inactive | –
22 | O=C(Nc1sc2c(c1C(=O)NCC1CCCO1)CCC2)c1cc(=O)c2ccccc2o1 (stereo unspecified) | inconclusive [inhibitor, single point] | –
23 | O=C(Cc1cccc2ccccc12)NN1C(=O)/C(=C\c2cccnc2)SC1=S | inconclusive [inhibitor, partial curve] | –
24 | C=C1CCC[C@]2(C)C[C@H]3OC(=O)C(CNCCN(C)C)[C@H]3CC12 (stereo partly specified) | inconclusive [inhibitor, partial curve] | –

Row | SMILES | Potency | activity change, negative = growth inhibition
25 | COCCCNc1oc(-c2ccc(COc3ccc(Cl)cc3)o2)nc1C#N | inconclusive [inhibitor, single point] | –
26 | CN1C(=O)C(O)(CC(=O)/C=C/C=C/c2ccccc2)c2ccccc21 (stereo unspecified) | inconclusive [inhibitor, single point] | –
27 | O=C(COc1ccc2ccccc2c1Br)NC(=S)Nc1cccc(CO)c1 | inconclusive [inhibitor, single point] | –
28 | O=C1/C(=C/c2ccccc2[N+](=O)[O-])COc2ccccc21 | inconclusive [inhibitor, full curve, poor fit] | –
29 | O=C(NCc1ccccc1)C(c1ccco1)N1CCN(c2ccccc2F)CC1 (stereo unspecified) | inconclusive [inhibitor, single point] | –
30 | CCN(CC)S(=O)(=O)c1cccc(-c2nnc(SCC(N)=O)n2N)c1 | inactive | –
31 | Cc1cccc(C)c1OCC(O)CN1CCCCC1 (stereo unspecified) | inactive | –
32 | COc1ccc(Cn2c(=O)c3oc4ccccc4c3n(Cc3ccc(Cl)cc3)c2=O)cc1 | inactive | –
33 | COC(=O)c1ccccc1NC(=O)Cn1c(-c2nonc2N)nc2ccccc21 | active: 0.708 µM | –
34 | O=C(Nc1cccc(C(=O)N2CCCCC2)c1)c1ccccc1 | inactive | –
35 | CC1(C(=O)NS(=O)(=O)C2CC2)CCCN(C(=O)c2cccs2)C1 (stereo unspecified) | active: 6.51 µM | –
36 | CC(=O)c1ccc(OCCCC(=O)N2CCN(S(=O)(=O)c3cc(C)ccc3C)CC2)cc1 | inconclusive [inhibitor, partial curve] | –
37 | CCOC(=O)c1c(S(=O)(=O)N2CCCC(C(=O)Nc3cccc(C)n3)C2)c(C)n(C)c1C (stereo unspecified) | inconclusive [inhibitor, single point] | –
38 | Cc1ccc(OCC(=O)N/N=C/c2ccncc2)cc1C | inactive | –
39 | CCn1cc(C(=O)OCC(=O)Nc2cccc(C(C)=O)c2)c(=O)c2ccc(C)nc21 | inactive | –
40 | Cc1c(C(=O)N(C)C)sc(NC(=O)c2cc([N+](=O)[O-])cc([N+](=O)[O-])c2)c1C#N | inactive | –
41 | COc1ccccc1NC(=O)Cc1nnc(SCC(=O)NC2CCCC2)n1C | inactive | –
42 | COCCNc1nc(NCc2ccc(NC(C)=O)cc2)c2sc(-c3ccccc3)cc2n1 | active: 4.11 µM | –
43 | C/C(=N\NC(=O)C1CC1)c1ccc(OC(F)F)cc1 | inactive | –
44 | Cc1cc(C)nc(SSc2nc(C)cc(C)n2)n1 | inconclusive [inhibitor, single point] | –
45 | Cc1ccc2c(=O)cc(C(=O)Nc3cccc(C(F)(F)F)c3)oc2c1C | inconclusive [inhibitor, single point] | –
46 | Cc1cccn2c(=O)c3cc(C(=O)NC(C)c4ccccc4)c(=N)n(CCCO)c3nc12 (stereo unspecified) | inconclusive [inhibitor, single point] | –
47 | COc1ccc(C(C(=O)NC2CCCCC2)N(CC2CCCO2)C(=O)C2COc3ccccc3O2)cc1OC (stereo unspecified) | inconclusive [inhibitor, single point] | –
48 | O=C(COC(=O)c1n[nH]c(=O)c2ccccc12)NCc1ccccc1 | active: 9.2 µM | –

Row | SMILES | Potency | activity change, negative = growth inhibition
49 | O=C(CO)[C@@H](O)[C@H](O)[C@@H](O)C(=O)O | inactive | –
50 | O=C1CC(c2ccccc2)n2ncnc2N1 (stereo unspecified) | inactive | –
51 | COc1cc(C(=O)N/N=C(\C)c2ccccn2)cc(OC)c1OC | active: 8.2 µM | –
52 | CCCCNc1nc(Nc2ccc(C)c(Cl)c2)c2cnn(C)c2n1 | inconclusive [inhibitor, partial curve] | –
53 | Cc1nc(NCc2ccccn2)c2c3c(sc2n1)CCCC3 | active: 20.6 µM | –
54 | CCOC(=O)c1c(C)[nH]c(C)c1S(=O)(=O)N1CCCC(C(=O)N2CCN(c3ccccc3)CC2)C1 (stereo unspecified) | inconclusive [inhibitor, single point] | –
55 | O=C(NCc1ccccn1)c1cc2ccccc2oc1=O | inactive | –
56 | O=C(COC(=O)/C=C/c1ccccc1[N+](=O)[O-])NC(=O)NC1CCCC1 | inactive | –
57 | CCC(=O)Nc1ccc(NC(=O)CSc2nnnn2Cc2ccccc2)cc1C | inactive | –
58 | N#Cc1c(NC(=O)CCCN2C(=O)c3ccccc3C2=O)oc(-c2ccccc2)c1-c1ccccc1 | – | inconclusive: -37.1% [inhibitor]
59 | COc1ccc2cc(C3CC(c4ccco4)=NN3S(C)(=O)=O)c(Cl)nc2c1 (stereo unspecified) | inconclusive [inhibitor, single point] | –
60 | COc1ccccc1N1CCN(C(=O)CCC(=O)N2CCN(c3ccc(F)cc3)CC2)CC1 | inconclusive [inhibitor, single point] | –
61 | Nc1ccccc1C#Cc1ccc([N+](=O)[O-])cc1 | inconclusive [inhibitor, partial curve] | –
62 | COc1ccc2nc(C)cc(N/N=C/c3cccc(OC)c3O)c2c1 | inconclusive [inhibitor, single point] | –
63 | Cc1ccc(NC(=O)c2cc(-c3ccccc3O)n[nH]2)cc1Cl | inactive | –
64 | C=CCNc1nc2ccccc2nc1NS(=O)(=O)c1ccc(F)cc1 | inconclusive [inhibitor, single point] | –
65 | O=C(Nc1ccc(F)c(Cl)c1)c1cccnc1 | inconclusive [inhibitor, single point] | –
66 | Cc1ccc(NC(=O)CSc2nnc3scc(-c4ccccc4)n23)cc1 | inactive | –
67 | Cc1cccc(C)c1OCC(=O)NNC(=O)CNC(=O)c1ccc(OC(F)F)cc1 | inconclusive [inhibitor, full curve, poor fit] | –
68 | COc1ccc(C(=O)NCCn2cc(SCC(=O)Nc3nnc(C)s3)c3ccccc32)cc1 | inconclusive [inhibitor, single point] | –
69 | O=C(CN1C(=O)NC2(CCCCCC2)C1=O)c1ccc(Cl)s1 | inconclusive [inhibitor, single point] | –
70 | Cc1ccc(C(=O)N2c3ccccc3N=C(c3ccccc3)C2C(=O)NC(C)C)cc1 (stereo unspecified) | inconclusive [inhibitor, single point] | –
71 | O=C(O)c1ccc(NCc2cccnc2)c([N+](=O)[O-])c1 | inactive | –

Source: PubChem BioAssay AID686978 (National Center for Advancing Translational Sciences (NCATS), 2013)
